# The full ranking holds about 5,400 compounds; the median of “IFI” is about 2, and the highest 2% start at about 22. The list shows a part of the results.
# Assay: NOVARTIS: Inhibition Frequency Index (IFI) - the number of HTS assays where a compound showed > 50% inhibition/induction, expressed as a percentage of the number of assays in which the compound was tested.
# Format: functional
row,SMILES,IFI
1,Cc1cccc(CSc2nnc(C(Cc3ccccc3)NC(=O)C3CCCCC3)n2-c2ccc(Cl)cc2Cl)c1 (stereo not drawn),1.07%
2,CC(C)(C)NCC(O)Cn1c2ccc(I)cc2c2cc(I)ccc21 (stereo not drawn),4.05%
3,COc1ccc(NC(=O)C2=C(C)NC(=S)NC2c2ccc(O)cc2)cc1 (stereo not drawn),0%
4,O=C(CCn1c(=O)[nH]c2ccccc21)NCC1Cc2cccc(-c3ccncc3)c2O1 (stereo not drawn),0%
5,COc1ccc(CN2CCOc3ccc(C(C)(O)CN(C)C)cc3C2)cc1C (stereo not drawn),0%
6,COc1ccc(C2CC(=O)C3=C(C2)NC(=O)CC3c2ccc(C(F)(F)F)cc2)cc1OC (stereo not drawn),0%
7,COc1cccc(Nc2nc(NCCO)c3ccccc3n2)c1,1.47%
8,CCCCCCN(C(=O)c1ccccc1)C(CC)c1nc2ccccc2c(=O)n1-c1ccccc1OC (stereo not drawn),1.03%
9,COc1cc(NC(C)CCCN(Cc2ccccc2OC)S(=O)(=O)c2ccc(Br)cc2)c2ncccc2c1 (stereo not drawn),4.25%
10,COc1cc2ccccc2cc1C(=O)NCCOC12CC3CC(CC(C3)C1)C2,2.15%
11,CN(CCCNc1ccnc2cc(Cl)ccc12)C(=O)c1ccccc1,1.87%
12,CCc1[nH]nc2c1C(Cc1ccccc1)C(C#N)=C(N)O2 (stereo not drawn),1.54%
13,COc1cc(/C=C/c2nc(O)nc(O)c2[N+](=O)[O-])cc(Br)c1O,7.69%
14,COc1ccc(OC)c(-c2ccc(O)c(CNCC3CCCCC3)c2)c1,5.88%
15,OC(CN1CCN(Cc2ccccc2)CC1)Cn1c2ccc(Cl)cc2c2cc(Cl)ccc21 (stereo not drawn),1.15%
16,COC(=O)c1ccc(C2C3=C(O)CC(c4cccs4)CC3=Nc3ccccc3N2C(=O)c2ccccc2)cc1 (stereo not drawn),2.5%
17,C[n+]1ccccc1/C=C/C1=C(c2ccccc2)Oc2ccccc2O1,11.1%
18,Fc1ccc(-c2cn3c([n+]2-c2ccccc2)SCC3)cc1,1.04%
19,CC(C)CNC(=O)c1cnc(NCCCN2CCCC2)nc1NC1CCCC1,1.91%
20,CCCOC(=O)C1=C(C)NC2=C(C(=O)CC(c3ccc(OC)cc3)C2)C1c1ccc(Cl)cc1Cl (stereo not drawn),2.35%
21,COc1ccc(CNCCN2CCN(c3ccc(C)cc3)C[C@@H]2c2ccccc2)cc1,3.75%

row,SMILES,IFI
1,OC(Cn1cnc(-c2ccccc2)c1-c1ccccc1)Cn1c2ccc(Cl)cc2c2cc(Cl)ccc21 (stereo not drawn),2.33%
2,CC(=O)Nc1nc(C)c(-c2csc(Nc3ccc(Br)cc3)n2)s1,4.81%
3,Cc1noc(C)c1S(=O)(=O)N(Cc1ccccc1)CC(O)CN1CCC(NC(=O)c2cccc3ccccc23)C1 (stereo not drawn),2.91%
4,O=C(O)C1Cc2c([nH]c3ccccc23)C(c2ccc(Cl)cc2Cl)N1 (stereo not drawn),0%
5,CC(C)CNC(=O)c1cc(NC(=O)c2cccs2)ccc1N1CCc2ccccc2C1,1.09%
6,Cc1c(C(=O)N2CCN(c3ccc([N+](=O)[O-])cc3)CC2)sc2ncnc(N(C)c3ccccc3)c12,1.16%
7,O=C(Nc1ccc(C(=O)Nc2cccc(C3=NCCN3)c2)cc1)c1ccc(C2=NCCN2)cc1,0.87%
8,CC1CC(=O)NN=C1c1ccc(NC(=O)c2ccccc2)cc1 (stereo not drawn),14.3%
9,N#Cc1cc(Oc2ccc(-c3cnc4ccccc4n3)cc2)nc2ccccc12,0%
10,CCCC(=O)N(CCCC(C)Nc1cc(OC)cc2cccnc12)Cc1ccc(F)cc1 (stereo not drawn),1.94%
11,CC1=C(C(=O)OC(C)C)C(c2ccccc2F)C2=C(CC(c3ccc(Cl)cc3)CC2=O)N1 (stereo not drawn),2.22%
12,Cc1ccc2c(c1)C1CN(C)CCC1N2C(=O)c1cc2ccccc2o1 (stereo not drawn),0%
13,C=CCn1c(=N)n(CC(O)c2ccc(Cl)c(Cl)c2)c2ccccc21 (stereo not drawn),9.52%
14,CC(C)CC(N)C(=O)N1CCc2nc(Cc3ccc(F)cc3Cl)sc2C1 (stereo not drawn),4.22%
15,c1ccc(Cn2c(N=NNc3nc4ccccc4n3Cc3ccccc3)nc3ccccc32)cc1,6.03%
16,Cc1cc(C)nc(SCc2cc(=O)c(OC(=O)c3ccccc3Br)co2)n1,0%
17,CCCCCCCCCC(=O)N1CCN(C(CC)c2nc3ccccc3c(=O)n2C)CC1 (stereo not drawn),4.63%
18,Cn1c(=NC(=O)c2ccc(S(=O)(=O)N3CCCCC3)cc2)sc2cc(Cl)ccc21,0%
19,Nc1ccc(C(=O)Nc2ccc(-c3nc4ccccc4o3)cc2)cc1,7.69%
20,Cc1ccc(C2Sc3ccccc3NC3=C2C(=O)c2ccccc23)cc1 (stereo not drawn),2.17%
21,CCC(=O)NC(c1cccc([N+](=O)[O-])c1)c1ccc2cccnc2c1O (stereo not drawn),0%

row,SMILES,IFI
1,CC[n+]1c(C=CN(C)c2ccccc2)sc2ccc(Cl)cc21,9.09%
2,CCC(c1nc2ccccc2c(=O)n1-c1ccccc1OC)N(CCc1ccccc1)C(=O)c1cccc(C(F)(F)F)c1 (stereo not drawn),3.26%
3,CCC(C(=O)NCCCCNc1ccnc2cc(Cl)ccc12)c1ccccc1 (stereo not drawn),6.6%
4,COc1ccc(C2CC(c3ccccc3Cl)n3ncnc3N2C(=O)C2CC2)cc1 (stereo not drawn),0%
5,O=c1c2c([nH]c3ccccc13)CCCCCCCCCC2,2.94%
6,CCOc1cc2c(cc1OCC)C(c1cc(Cl)ccc1O)NCC2 (stereo not drawn),0%
7,CCOC(=O)C1CCN(C(=O)C(=O)Nc2ccc3nc4n(c(=O)c3c2)CCCCC4)CC1,0%
8,CC(C)N(C(=O)Cn1ccc(=N)c2ccccc21)C(C)C,0%
9,Cc1ccc(C)c2[nH]c(=O)c(CN(Cc3ccccc3)C(=S)NCCCN(C)C)cc12,6.19%
10,CCOC(=O)c1c[nH]c2ccc(C)cc2c1=O,0%
11,COc1ccc(-n2nc(C(=O)NCc3ccccc3OC)c3ccccc3c2=O)cc1,3.61%
12,C(=Nc1cnc2ccccc2c1)c1c2n(c3ccccc13)CCCN2,0%
13,CCCN(C(=O)C(=O)Nc1ccc2nc3n(c(=O)c2c1)CCCCC3)c1ccc(OCC)cc1,0%
14,Cc1ccc2c(nc3sc(=Cc4ccc(-c5ccccc5F)o4)c(=O)n32)c1C,3.57%
15,CN(Cc1ccccc1)c1cc(-c2ccccn2)nc(-c2ccccn2)n1,7.69%
16,Cc1n(C)c2ccccc2[n+]1CC(=O)c1ccccc1,0%
17,Oc1ccc(-c2ccc(F)cc2)cc1CNC1CCCCC1,1.74%
18,COc1cccc(C(=O)Oc2ccccc2-c2nc3cc(C)ccn3c2NC(C)(C)CC(C)(C)C)c1,3.74%
19,CC(C)(C)c1cc(CCC(=O)Nc2c3c(nc4ccccc24)N(c2cccc(Cl)c2)CC3)cc(C(C)(C)C)c1O,4.54%
20,COC(=O)C1=CN(Cc2ccc(Cl)cc2)C=C(C(=O)OC)C1c1ccc(Cl)c(Cl)c1,3.53%
21,C=CCSc1oc(-c2ccco2)nc1[P+](c1ccccc1)(c1ccccc1)c1ccccc1,23.1%

# Reference: ChEMBL document CHEMBL1156829
